Experimental data published in PubChem BioAssay AID686979 (National Center for Advancing Translational Sciences (NCATS), 2013).
The whole screen tested about 420,000 compounds, of which about 50,000 (12%) were called active. Inconclusive means that the source gave no clear call. Such entries were picked first, then a sample of the others. The call rests on the fitted dose curve; in most records, active means well fitted inhibition curve with a large enough effect; inconclusive means small, poorly fitted or top-dose-only effect; inactive means flat fitted curve, though single readings scatter. Potencies of inconclusive entries are left out as doubtful fits. Where a structure was tested more than once in an assay, its records may differ in their call.
Potency means the concentration at half of the fitted maximal effect; tags describe the fitted curve by direction and shape.

Assay: qHTS for Inhibitors of human tyrosyl-DNA phosphodiesterase 1 (TDP1): qHTS in cells in presence of CPT; further: nearly all actives have a fitted effect of over 55% in size
Settings: chicken DT40 Tdp1-/-;hTDP1 cells + 20 nM CPT, ATP luminescence, 48 h; series mostly up to 46.2 µM
In short: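 Cell growth measured by CellTiter-Glo luminescence after a minimum 48 h, 37 C compound exposure with 20 nM CPT in Tdp1-knockout DT40 cells stably expressing hTDP1, seeded 400/well; qHTS titration format.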
With O=C(NCC1(c2ccccc2)CCCC1)c1ccc(Br)cc1 the Potency was inconclusive [inhibitor, single point].
With COc1ccc(S(=O)(=O)Nc2cc3c(cc2N2CCOCC2)n(C)c(=O)n3C)cc1 the Potency was inconclusive [inhibitor, partial curve].
In the case of COc1ccc(Cn2nnnc2C(c2ccc(F)cc2)N2CCN(C3CCCC3)CC2)cc1 (centres undefined), the Potency is reported as inconclusive [inhibitor, single point].
For Nc1nnc(SCC(=O)Nc2ccc(N3CCOCC3)c(Cl)c2)s1, the Potency was active: 18.4 µM.
In the case of Fc1ccccc1Cn1c2[n+](c3ccc(C(F)(F)F)cc31)CCCCC2, the Potency is reported as inconclusive [inhibitor, single point].
With CC(C)C(=O)NNc1ccc(C(F)(F)F)cn1 the Potency was “inactive”.
For Cc1ccc(CN2C(=O)CC(Nc3ccc(N4CCOCC4)cc3)C2=O)cc1 (centres undefined), the Potency was “inactive”.
With COc1ccc2c(c1)C(CC(C)=O)N(c1ccc(-c3cccnc3)cc1)C(c1ccsc1)=C2 (centres undefined) the Potency was inconclusive [inhibitor, single point].
For CCCc1cc(=O)oc2cc(C)c3c(C(C)(C)C)coc3c12, the Potency was inconclusive [inhibitor, single point].
For O=C(O)[C@]1(S(=O)(=O)c2ccccc2)C[C@@H]2ON=C(c3cccc(Br)c3)[C@@H]2C1, the Potency was inconclusive [inhibitor, partial curve, poor fit].
With O=C(Nc1cccc(F)c1)NC1CCN(Cc2ccccc2)CC1 the Potency was “inactive”.
In the case of CCOc1ccc(CCNC(=O)CSc2nn(-c3ccc(C)c(Cl)c3)c(=S)s2)cc1OCC, the Potency is reported as inconclusive [inhibitor, single point].
In the case of Cc1cccc2cc(CN(C(=O)c3ccc(-c4ccc(F)cc4)cc3)C3CC3)c(N3CCC(O)CC3)nc12, the Potency is reported as inconclusive [inhibitor, single point].
With C=CCN(N=Nc1cccc([N+](=O)[O-])c1)c1cccc([N+](=O)[O-])c1 the Potency was inconclusive [inhibitor, single point].
With Cc1ccc(C)c(CSc2nnc([C@@H](N)C(C)C)o2)c1 the Potency was “inactive”.
With Cc1ccc(S(=O)(=O)N2[C@H](CC(=O)c3ccc(F)cc3)OC[C@@H]2C(C)C)cc1 the Potency was inconclusive [inhibitor, single point].
For COc1ccc(CNC(=O)CN2C(=O)CSc3ccc(S(=O)(=O)N4CCCCC4)cc32)cc1, the Potency was “inactive”.
In the case of Cc1ccnc(NC2(C(F)(F)F)N=C3SCCN3C2=O)c1 (centres undefined), the Potency is reported as “inactive”.
For O=C(Nc1cccc(Cl)c1Cl)C1CCCC1, the Potency was “inactive”.
In the case of COc1ccccc1NS(=O)(=O)c1cccc(NC(=O)Cc2cccs2)c1, the Potency is reported as inconclusive [inhibitor, single point].
In the case of CC1CCN(C(=O)C2CCN(c3ncnc4c3nc3n4CCCCC3)CC2)CC1, the Potency is reported as inconclusive [inhibitor, single point].
In the case of O=C(Nc1ccc(C(=O)NCc2ccccc2Cl)cc1)C1=CSCCO1, the Potency is reported as inconclusive [inhibitor, single point].
In the case of COc1ccccc1CC(=O)NNS(=O)(=O)c1cccc([N+](=O)[O-])c1, the Potency is reported as “inactive”.
For Cc1ccc(O)c(-c2cc(C(=O)NCc3ccncc3)[nH]n2)c1, the Potency was inconclusive [inhibitor, single point].
For COC(=O)c1ccc(Cn2nc(-c3ccc(C)cc3)ccc2=O)cc1, the Potency was active: 16.4 µM.
With Nc1nnc2cc(Cl)ccc2n1 the Potency was inconclusive [inhibitor, single point].
In the case of Oc1ccc(-c2cccc(-c3ccc(O)cc3)c2)cc1, the Potency is reported as “inactive”.
For Cc1[nH]n(-c2ccccc2)c(=O)c1/C=C1/C=c2ccccc2=N1, the Potency was inconclusive [inhibitor, single point].
In the case of O=C(COc1ccc(Cl)cc1)NNC(=S)NCc1ccccc1, the Potency is reported as inconclusive [inhibitor, single point].
For CCOC(=O)c1c(C)c(-c2ccccc2)n(CC(=O)NCCC(C)C)c1C, the Potency was inconclusive [inhibitor, partial curve].
In the case of O=C(NC1CCCCC1)N(Cc1ccc(F)cc1)Cc1nc2ccccc2c(=O)[nH]1, the Potency is reported as inconclusive [inhibitor, partial curve].
For COc1ccc2[nH]cc(CCNc3nc(-c4c(C)noc4C)nc4ccccc34)c2c1, the Potency was inconclusive [inhibitor, single point].
For O=c1c(-c2nnc(SCc3ccc(Cl)c(Cl)c3)o2)cccn1Cc1ccccc1, the Potency was inconclusive [inhibitor, single point].
In the case of Cc1nc2c(OCc3cccc(Cl)c3)cccn2c1N(C)CC1CC1, the Potency is reported as inconclusive [inhibitor, single point].
For Fc1ccc(-c2csc(-c3ccc(C4SCCS4)cc3)n2)cc1F, the Potency was “inactive”.
In the case of Cc1csc2c(N3CCN(C(=O)Nc4ccc(OC(F)(F)F)cc4)CC3)ncnc12, the Potency is reported as active: 10.3 µM.
In the case of CCc1ccc(-c2cc(C(F)(F)F)n3nc(C(=O)Nc4c(C)nn(Cc5ccccc5Cl)c4C)cc3n2)s1, the Potency is reported as inconclusive [inhibitor, single point].
For CCc1cccc(NC(=O)c2oc3ccc4c(c3c2C)C(=O)CC(C)(C)O4)c1, the Potency was inconclusive [inhibitor, single point].
With N#Cc1c(N2CCOCC2)nc(N)c2c(N)nc3c(c12)CC(CCl)O3 (centres undefined) the Potency was inconclusive [inhibitor, partial curve, poor fit].
For CCO[C@H]1OC(C(=O)Nc2ccccc2)=C[C@@H](C2CC2)[C@@H]1CCCO, the Potency was inconclusive [inhibitor, single point].
In the case of CCCCCOC(=O)C1=C(C)NC(=O)NC1c1ccc(N(C)C)cc1 (centres undefined), the Potency is reported as inconclusive [inhibitor, single point].
In the case of COc1ccc(CN2CCC3CC2c2cc(Cl)ccc23)cc1 (centres undefined), the Potency is reported as active: 18.4 µM.
With COc1ccccc1-n1c(SCc2cc(=O)oc3cc(O)ccc23)nc2ccccc2c1=O the Potency was active: 23.1 µM.
With COc1ccccc1N(C)S(=O)(=O)c1ccc(C(=O)NC2=NCCS2)cc1 the Potency was inconclusive [inhibitor, partial curve].
For CNc1c(Br)cc(/C=C2\C=C(C(O)c3cc(Br)c(NC)c(Br)c3)c3ccccc32)cc1Br (centres undefined), the Potency was inconclusive [inhibitor, full curve].
In the case of O=C(/C=C/c1ccoc1)c1ccccc1O, the Potency is reported as “inactive”.
In the case of CCCS(=O)(=O)NC(=O)C1(C)CCN(C(=O)COc2ccc(Cl)cc2Cl)C1 (centres undefined), the Potency is reported as “inactive”.
With O=C(Nc1ccc(Cl)cc1C(=O)c1ccccn1)c1ccccc1 the Potency was “inactive”.
With COc1ccc(OC)c(NC(=O)COC(=O)COc2ccc(Nc3ccccc3)cc2)c1 the Potency was “inactive”.
With Cc1cc(NCc2ccccn2)n2nc(C)c(-c3ccccc3)c2n1 the Potency was active: 0.0517 µM.
With CCOc1ccc(NS(=O)(=O)c2ccc3[nH]cc(C(=O)N4CCCCCC4)c(=O)c3c2)cc1 the Potency was “inactive”.
In the case of O=C(c1ccc2c(c1)OCCO2)N(Cc1cccnc1)c1nc2c(F)cc(F)cc2s1, the Potency is reported as inconclusive [inhibitor, single point].
With COc1cccc(CNS(=O)(=O)c2ccc(-c3cc(C(F)(F)F)on3)s2)c1 the Potency was inconclusive [inhibitor, single point].
In the case of CCn1c(=O)c(=O)[nH]c2cc(C(=O)NC3CCCc4ccccc43)ccc21 (centres undefined), the Potency is reported as inconclusive [inhibitor, single point].
In the case of CCOC(=O)c1ccc(N2C(=O)Cc3cc(OCC)c(OCC)cc3C2c2ccccc2)cc1 (centres undefined), the Potency is reported as active: 14.6 µM.
In the case of CCOc1ccc(C(=O)Nc2ccc3oc(-c4ccc(Br)cc4)nc3c2)cc1, the Potency is reported as inconclusive [inhibitor, single point].
In the case of COC(=O)C1C(=O)N(S(=O)(=O)c2ccc([N+](=O)[O-])cc2)c2ccccc21 (centres undefined), the Potency is reported as “inactive”.
In the case of O=[N+]([O-])c1cccc(N2Cc3ccccc3C2)c1, the Potency is reported as inconclusive [inhibitor, partial curve, poor fit].
In the case of Nc1nc(N)c2c(n1)CCCC2, the Potency is reported as “inactive”.
In the case of O=C(OCC(=O)N1CCN(C(=O)c2ccco2)CC1)c1cc(-c2ccc(F)cc2)nc2ccccc12, the Potency is reported as “inactive”.
In the case of NC(=O)c1c(NC(=O)c2cccs2)sc2c1CCCCCC2, the Potency is reported as inconclusive [inhibitor, single point].
In the case of Cc1ccccc1-c1nc(SCC(=O)NCC2CCCO2)c2c(=O)n(C)c(=O)n(C)c2n1 (centres undefined), the Potency is reported as “inactive”.
In the case of CN(C)S(=O)(=O)c1ccc(C(=O)NCc2nnc(SCC(=O)N3CCCCCC3)o2)cc1, the Potency is reported as inconclusive [inhibitor, single point].
For COc1ccc(Cc2nc3ccc(C(=O)NCCCN4CCN(C)CC4)cc3o2)cc1, the Potency was inconclusive [inhibitor, single point].
In the case of OC1(c2ccccc2)CN(c2ccccc2)C2=[N+]1CCS2 (centres undefined), the Potency is reported as inconclusive [inhibitor, single point].
In the case of Cc1nnc(-c2ccc(Oc3ccc(Cl)cc3)c([N+](=O)[O-])c2)o1, the Potency is reported as inconclusive [inhibitor, single point].
For Cc1cc(C(=O)CSc2n[nH]c(N)n2)c(C)n1-c1ccccc1, the Potency was inconclusive [inhibitor, partial curve].
For OC[C@@H]1CCCN1Cc1cn(-c2ccccc2)nc1-c1ccc2c(c1)OCO2, the Potency was inconclusive [inhibitor, single point].
In the case of CCc1ccc(-c2cc(C)no2)cc1S(=O)(=O)Nc1ccccn1, the Potency is reported as “inactive”.
